Assay results reported in PubChem BioAssay (NCATS).
Several values for one entry are separate records, joined by “and”; a condition that tells them apart may be missing. Identical values can stand only once. The shares of active, inactive and inconclusive entries below differ from those in the screen. Potencies of inconclusive entries are doubtful fits and often do not repeat. Activity calls are given as the source filed them. Calls come from the whole dose curve; as a rule, active = well fitted curve in the direction sought with a large enough effect; inconclusive = small, poorly fitted or top-dose-only effect, or another doubt; inactive = no such curve, though single readings can be large; an effect the other way counts as inactive or inconclusive. Where a SMILES comes first, the peptide text is derived from it. [ ]: non-standard residue; d: D form. The star is where a group is joined. Sta = CC(C)C[C@H](N)[C@@H](O)CC(=O)O; Isovaleryl = CC(C)CC(=O)*

Tests used:
[1] = qHTS of pediatric cancer cell lines to identify multiple opportunities for drug repurposing: Primary screen for NB-EBc1 cells (AID 1347095)
In short: (§1)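 CRCs from 8- or 11-point titrations (lowest final 0.59 nM NPC, 0.78 nM MIPE). Cell viability: CellTiter-Glo after 48 h incubation, 15 min room-temperature development, luminescence imaging.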

[2] = qHTS of pediatric cancer cell lines to identify multiple opportunities for drug repurposing: Primary screen for U-2 OS cells (AID 1347096); note: nearly all actives have a fitted effect of over 50% in size
In short: (§2)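 Cells (500-1,000/well) rested 5 h, then received compounds for 48 h; metabolically active cells were measured by CellTiter-Glo luminescence. Final concentrations spanned up to 46 µM (MIPE, 11-point) or 0.59 nM-46 µM (NPC, 8-point) in primary screens, 11-point in follow-ups.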

[3] = qHTS of pediatric cancer cell lines to identify multiple opportunities for drug repurposing: Primary screen for Saos-2 cells (AID 1347097); details: Saos-2 viability, CellTiter-Glo ATP luminescence, 48 h; activity change, negative = cytotoxic: at 46 µM (top of the series); note: nearly all actives have a fitted effect of over 40% in size
In short: as §1

[4] = qHTS of pediatric cancer cell lines to identify multiple opportunities for drug repurposing: Primary screen for SK-N-SH cells (AID 1347098); details: SK-N-SH viability, CellTiter-Glo luminescence, 48 h; activity change, negative = cytotoxic: at 57 µM (top of the series); note: nearly all actives have a fitted effect of over 65% in size
In short: as §2

[5] = qHTS of pediatric cancer cell lines to identify multiple opportunities for drug repurposing: Primary screen for LAN-5 cells (AID 1347100); details: LAN-5 neuroblastoma viability, CellTiter-Glo luminescence, 48 h; activity change, negative = cytotoxic: at 46 µM (top of the series)
In short: as §2

[6] = qHTS of pediatric cancer cell lines to identify multiple opportunities for drug repurposing: Primary screen for RD cells (AID 1347104); note: nearly all actives have a fitted effect of over 55% in size
In short: as §1

[7] = qHTS of pediatric cancer cell lines to identify multiple opportunities for drug repurposing: Primary screen for NB1643 cells (AID 1347099); note: nearly all actives have a fitted effect of over 50% in size
In short: as §1

[8] = qHTS of pediatric cancer cell lines to identify multiple opportunities for drug repurposing: Primary screen for BT-12 cells (AID 1347101); note: nearly all actives have a fitted effect of over 25% in size
In short: as §2

[9] = qHTS of pediatric cancer cell lines to identify multiple opportunities for drug repurposing: Primary screen for Rh18 cells (AID 1347102); note: nearly all actives have a fitted effect of over 65% in size
In short: as §2

[10] = qHTS of pediatric cancer cell lines to identify multiple opportunities for drug repurposing: Primary screen for OHS-50 cells (AID 1347103); note: nearly all actives have a fitted effect of over 40% in size
In short: as §2
Potency is the fitted concentration of half-maximal effect; tags give direction and shape of the fitted curve.

SMILES | Potency [1] | Potency [2] | Potency [3] | Potency [4] | Potency [5] | Potency [6] | Potency [7] | Potency [8] | Potency [9] | Potency [10]
NS(=O)(=O)c1ccc(Nc2nc(OCC3CCCCC3)c3[nH]cnc3n2)cc1 | inconclusive: 20.9 µM [cytotoxic, partial curve, poor fit] | inconclusive: 5.9 µM [cytotoxic, partial curve, poor fit] | active: 16.6 µM | inconclusive: 27.1 µM [cytotoxic, partial curve] | active: 16.6 µM | inconclusive: 18.7 µM [cytotoxic, partial curve] | – | – | – | –
COc1ccc2c(Oc3ccc(NC(=O)c4c(C)n(CC(C)(C)O)n(-c5ccccc5)c4=O)cc3F)ccnc2c1 | inconclusive: 29.6 µM [cytotoxic, single point] | inconclusive: 29.6 µM [cytotoxic, single point] | active: 26.4 µM | inconclusive: 24.1 µM [cytotoxic, partial curve] | inconclusive: 20.9 µM [cytotoxic, single point] | inconclusive: 33.2 µM [cytotoxic, partial curve] | inconclusive: 23.5 µM [cytotoxic, single point] | inconclusive: 27.3 µM [cytotoxic, single point] | inconclusive: 16.6 µM [cytotoxic, partial curve] | –
CCCOc1ccc2nc(NC(=O)OC)[nH]c2c1 | inconclusive: 33.5 µM [cytotoxic, single point] | inconclusive: 168 nM [cytotoxic, full curve] and inconclusive: 93.5 nM [cytotoxic, full curve, poor fit] | active: 29.9 nM and inconclusive: 4.2 nM [cytotoxic, full curve, poor fit] | inconclusive: 0.0307 µM [cytotoxic, full curve, poor fit] | inconclusive: 18.8 µM [cytotoxic, single point] and inconclusive: 8.3 nM [cytotoxic, full curve] | inconclusive: 47.3 nM [cytotoxic, full curve] and inconclusive: 8.3 nM [cytotoxic, full curve, poor fit] | inconclusive: 37.6 nM [cytotoxic, full curve] and inconclusive: 52.6 nM [cytotoxic, full curve, poor fit] | active: 123 nM and active: 30.6 nM | inconclusive: 0.0266 µM [cytotoxic, partial curve, poor fit] | –
CC1(C)Cc2c(-c3ccccc3)c(-c3ccc(Cl)cc3)c(CC(=O)O)n2C1 | inconclusive: 18.7 µM [cytotoxic, single point] | inactive | active: 33.2 µM | inconclusive: 38.3 µM [cytotoxic, partial curve, poor fit] | inconclusive: 33.2 µM [cytotoxic, single point] | inconclusive: 29.6 µM [cytotoxic, single point] | inconclusive: 23.5 µM [cytotoxic, single point] | inconclusive: 21.7 µM [cytotoxic, partial curve] | inactive | inconclusive: 24.3 µM [cytotoxic, partial curve]
CC(C)CC(=O)N[C@H](C(=O)N[C@H](C(=O)N[C@@H](CC(C)C)[C@@H](O)CC(=O)N[C@@H](C)C(=O)N[C@@H](CC(C)C)[C@@H](O)CC(=O)O)C(C)C)C(C)C (Isovaleryl-VV[Sta]A[Sta]-OH) | inconclusive: 23.5 µM [cytotoxic, single point] | inactive | inactive | – | – | inactive | – | – | – | –
COC1=C(OC)C(=O)C(CCCCCCCCCCO)=C(C)C1=O | inconclusive: 26.6 µM [cytotoxic, single point] and inconclusive: 33.2 µM [cytotoxic, single point] | inconclusive: 26.6 µM [cytotoxic, single point] | inconclusive: 26.6 µM [cytotoxic, single point] | inconclusive: 34.4 µM [cytotoxic, single point] | inconclusive: 33.5 µM [cytotoxic, single point] and inconclusive: 37.2 µM [cytotoxic, single point] | – | – | inconclusive: 30.9 µM [cytotoxic, partial curve] and inconclusive: 30.6 µM [cytotoxic, partial curve, poor fit] | – | inconclusive: 30.9 µM [cytotoxic, partial curve] and inconclusive: 30.6 µM [cytotoxic, single point]
